Laboratory results taken from ChEMBL document CHEMBL4888484, “Replenishing the malaria drug discovery pipeline: Screening and hit evaluation of the MMV Hit Generation Library 1 (HGL1) against asexual blood stage Plasmodium falciparum ,using a nano luciferase reporter read-out” (2022).
Among all 150,000 compounds or so, about 540 (0.36%) showed an effect of 50% or more. Some of the results follow.

test system: Plasmodium falciparum; experiment: Primary screen in NF54 nanoGlo assay, in single point, at 2uM, 72h; a lower Z score goes with more inhibition; type: functional, Erythrocyte; conditions: timepoint 72 hour

SMILES	% Inhibition	Z score
O=C(NCCC(F)(F)F)[C@@H]1NCCOc2ccccc21	5%	-0.85
Cc1noc2nc(C3CC3)cc(C(=O)N3CCc4sccc4C3)c12	-1%	0.11
CC(C)c1nc(CCNC2CCCCC2S(C)(=O)=O)cs1 (stereo not drawn)	-1%	0.25
CC1(C)C2CC=C(CNc3ccc4c(c3)OCO4)C1C2 (stereo not drawn)	2%	-0.35
Cc1ncncc1C(=O)N1C[C@H]2CC[C@@H](C1)N(Cc1c(C)noc1C)C2=O	-14%	1.81
CC1=C(C(=O)Nc2cccc(C(F)(F)F)c2)[C@H](c2ccc3c(c2)OCO3)NC(=O)N1	-1%	0.11
c1ccc(CN2CCC(N3CC(c4cccnc4)C3)CC2)cc1	-7%	1.39
Cc1cccc(C(=O)N[C@@H](CC(C)C)C(=O)O)c1	-13%	1.71
N#Cc1c2ccc(O)cc2n2ccccc12	32%	-4.16
CC(C)c1ccc(N2CC(=O)N[C@H](C)C2)nn1	2%	-0.31
O=C(COc1ccc(F)cc1)N1CCC2(CC1)C[C@H](CO)N(C(=O)c1ccccc1)C2	-1%	0.1
CCOC(=O)NCCC(=O)NC[C@](C)(O)c1ccccc1Br	-1%	0.2
CCCc1[nH]c(C)cc(=O)c1C(=O)OC	-6%	0.61
CNS(=O)(=O)C[C@H]1CCCN1C(=O)CC(C)(C)OC	-7%	0.8
CC(C)C1N(C(=O)N2CCOCC2)C(C)CN1S(=O)(=O)c1ccccc1 (stereo not drawn)	-8%	0.94
COc1cc2c(cc1OC)[C@@H]1CN(C(=O)c3c(-c4c(F)cccc4Cl)noc3C)CC(=O)N1CC2	-19%	3
CCC(=O)N1CCN(C(=O)Cc2ccc(C)c(C)c2)[C@H]2CS(=O)(=O)C[C@H]21	-12%	1.11
Cc1n[nH]cc1CN1C(=O)[C@@H]2CCCCN2C1=O	-6%	0.7
c1ccc2c(c1)CC[C@H]2n1ccnc1-c1cc2n(n1)CCCNC2	-20%	2.85
Cc1ccc(NC(=O)CN2CCn3nnc(-c4nc(-c5ccsc5)no4)c3C2=O)c(C)c1	-9%	1.69
CC1CC(C)CN(C(=O)c2ccc(NC(=O)c3ccccc3)cc2)C1 (stereo not drawn)	-7%	0.98

SMILES	% Inhibition	Z score
CO[C@@H]1CCC[C@@H]2CN(Cc3c[nH]nc3-c3cccs3)C[C@@H]21	-1%	0.12
O=S(=O)(c1ccccc1Cl)N1CC(c2ccccc2)C(c2ncon2)C1 (stereo not drawn)	-3%	0.51
CCN(CC)S(=O)(=O)c1ccc2c(c1)N(CCCC(=O)N1CCCC1)C(=O)[C@@H]1CCCN21	1%	-0.24
CCc1nccn1CCC(=O)N1C[C@H](C(=O)O)[C@@H](c2ccccn2)C1	-8%	1.55
CCc1ccc(C2=C(C)C(N3CCCN(C(=O)c4ccncc4)CC3)=NS2(=O)=O)cc1	-12%	1.88
CC(C)(C)OC(=O)N1CCc2oncc2C1	-9%	1.1
CC(C)c1nncn1CCNC(=O)c1cnc(-c2ncccn2)s1	-5%	0.67
CCCCCOCC(=O)N1CC(O)(C(N)=O)C1	5%	-0.82
COc1ccc(Oc2c(N(C)C)cnn(-c3ccc(C)cc3)c2=O)cc1	20%	-2.54
O=C(NCc1ccccc1)N1CCC[C@H]1c1nc2ccccc2s1	-10%	1.27
CCN(Cc1nc2cc(Cl)ccc2c(=O)[nH]1)C[C@H](O)COc1ccc(-c2ccccc2)cc1	-4%	0.55
O=C(N[C@@H](CN1CCCC1)c1ccccc1)N1CCC(c2ccn[nH]2)CC1	50%	-8.21
CCOC1CC(Cc2nc(Cc3ccc4[nH]ncc4c3)no2)C1 (stereo not drawn)	5%	-0.61
CCCNC(=O)Cc1ccc(N(Cc2ccc(C)cc2)C(=O)CC)cc1	0%	0.02
Cc1ccc([C@@]2(C)CC(=O)N(Cc3ncc(C4CC4)o3)C2=O)cc1	5%	-0.7
COCc1nc(Cn2cnn(C(C)(C)C)c2=O)cs1	-11%	1.05
O=C(Nc1cccc2nsnc12)C1CCN(c2cc(C3CC3)ncn2)CC1	-4%	0.79
CC(C)n1cncc1CN[C@@H]1CCCC[C@H]1OC(F)F	1%	-0.15
CC(C)CNC(=O)NCCn1nnc2cc(C(=O)NC3CCCC3)ccc21	-3%	0.45
O[C@@H](CNc1nc(C(F)(F)F)cs1)CN1CCOCC1	18%	-2.31
CC(OC1CCCCCC1)C(=O)N1CCCC(CCC(=O)O)C1 (stereo not drawn)	-1%	0.12

SMILES	% Inhibition	Z score
Cc1nc2cc(NC(=O)c3ccccn3)ccc2o1	11%	-1.99
CC(C)CN1Cc2cccc(NS(=O)(=O)c3ccc4c(c3)OCCO4)c2C1	-5%	0.54
COC1CCN(C(=O)NCCCCc2ccc(F)c(F)c2)C(C)C1 (stereo not drawn)	-13%	2.22
CS(=O)(=O)CCC(=O)N[C@@H]1CC=CCC1	-3%	0.43
C[C@H]1COC(C)(C)CN1Cc1cnc2n1CCC2	-10%	1.52
NS(=O)(=O)c1cnc(N[C@H]2CCc3ccc(F)cc32)s1	-3%	0.33
Cn1nc(C(=O)N2CCNC(=O)c3ccccc32)cc1C(F)F	-6%	0.7
Cc1c(Br)cccc1CCNC(=O)c1ncnn1C	-10%	1.85
CCCN1C(=O)c2ccccc2C(C(=O)NCc2ccccn2)C1c1cc(OC)c(OC)c(OC)c1 (stereo not drawn)	12%	-1.83
NS(=O)(=O)C[C@H]1CCCN1C(=O)Nc1ccccn1	7%	-0.86
CN(C)S(=O)(=O)C1CCCN(C(=O)CC2COc3ccccc3O2)C1 (stereo not drawn)	-12%	1.26
CC(C)[C@H]1OCC[C@@H]1CNCc1cc[nH]n1	-1%	0.14
CCn1cc(CC(=O)N2CCC3(CC2)C(C)=Nc2ccccc23)nn1	-14%	1.51
Cc1cn2ccc(C(=O)N3Cc4ncccc4N4CCC[C@H]4C3)cc2n1	-17%	2.93
Cc1nn(Cc2c(C(=O)N3CCC(C)(c4noc(-c5cccnc5)n4)CC3)noc2C)c(C)c1C	-16%	2.02
COc1ccc2[nH]c(-c3nc(CCN(C)C(=O)c4ccc(F)cc4)no3)cc2c1	-6%	1.06
Cc1cc(O)ccc1C(=O)N1CCC2(CC1)CC(=O)NC(=O)C2	-7%	1.27
COc1ccc(CNC(=O)Cn2c(C)cc3nc4n(c(=O)c32)CCC4)cc1	-4%	0.57
Cc1cc(C)n(CCn2cnc(-c3ccccc3)c2[C@H]2CCOC2)c(=O)n1	-16%	1.63
Cc1ccc(OCC(=O)N(Cc2ccc(C)o2)c2ccccn2)cc1	8%	-0.92
CN1CCC(CNCc2nnn(C(C)(C)C)n2)(N2CCCCC2)CC1	-5%	0.69

SMILES	% Inhibition	Z score
COCC[C@]1(c2noc(-c3cccnc3)n2)CCCN(S(=O)(=O)c2c(C)noc2C)C1	-3%	0.55
Cn1cc(Cc2nc([C@H]3CCOC4(CCCC4)C3)no2)cn1	17%	-2.11
OC[C@H](O)c1cc2n(n1)CCN(c1ncc(F)c(N3CCOCC3)n1)C2	-1%	0.23
O=C(c1ccncc1F)N1CC(CN2C(=O)COC2=O)C1	11%	-1.45
Cc1ccc(CCC(=O)N2CC[S+]([O-])CC2)c(C)c1	-2%	0.23
COc1nc(CNC(=O)Cc2ccc(F)cc2F)nc(OC)n1	-6%	0.71
COCCC1(NC(=O)c2nc(C)oc2C)CCC1	5%	-0.64
COCCCN(Cc1c(-c2cccc(C)c2)noc1N1CCOCC1)C(C)=O	-14%	2.35
O=C1Nc2ccc(Cl)cc2[C@](C#CC2CC2)(C(F)(F)F)O1	-8%	1.08
CCN1CCN(C(=O)CCC2CCN(Cc3c(F)cccc3Cl)CC2)CC1	-15%	2.21
CCc1ccc(C(=O)N2CC3CN(S(=O)(=O)c4cccc(C)c4)CC(C2)O3)cc1	-19%	1.7
COc1ccc(-c2noc(-c3cn(Cc4ccc(N)cc4)cn3)n2)cc1OC	-12%	2.2
CCN(Cc1nc(C(C)C)no1)C(=O)c1ccc(=O)n(C)c1	-2%	0.48
O=C(c1ccc(C(F)(F)F)cc1)[C@H]1CCCN(C(=O)Cn2cncn2)C1	-10%	1.85
Cn1cnnc1CN1CCN(c2ccc(C(F)(F)F)cc2)CC1	1%	-0.06
COc1ccc(Cl)cc1NC(=O)Cn1c(=O)n(Cc2ccccc2Cl)c(=O)c2sccc21	6%	-0.84
Cc1ccc(C)c(NC(=O)Cn2[nH]c(-c3ccc(F)cc3)cc2=O)c1	2%	-0.28
Cc1cnc(C2CCN(Cc3ccccn3)CC2)n1[C@H](C)CO	-22%	1.92
O=C(C[C@H]1CCOC1)N1CC(Oc2ccccc2)C1	11%	-1.51
Cc1nn(CCO)c(C)c1CN(C)C[C@H]1COCCO1	-14%	2.57
C[C@@H](c1nc2cc(Cl)ccc2[nH]1)N(C)C(=O)c1cn(C)cn1	2%	-0.35
